In the supplement of paper PMC8728848:
This is one part of the list.

Key:
Test in all cases: glycan array binding signal (z-score within array); higher = stronger binding
Details in all cases: glycan notation: IUPAC condensed, linker removed
[1] = target: GlcNAc(b1-2)Gal(b1-3)GalNAc
Summary of the method: (§1)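 Glycan array binding is given as a within-array Z-score, which can be read as non-binding when negative. The arrays, 3228 of them, came from the Consortium for Functional Glycomics database and were retained only where the protein sequence was available. Z-scores were averaged across arrays of the same protein sequence at different concentrations or buffers and across linkers.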

[2] = target: GlcNAc(b1-2)Man(a1-3)[GlcNAc(b1-2)Man(a1-6)]Man(b1-4)GlcNAc(b1-4)GlcNAc
Summary of the method: as §1

[3] = target: GlcNAc(b1-2)Man(a1-3)[GlcNAc(b1-2)Man(a1-6)]Man(b1-4)GlcNAc(b1-4)[Fuc(a1-6)]GlcNAc
Summary of the method: as §1

[4] = target: GlcNAc(b1-2)Man(a1-3)[GlcNAc(b1-4)][GlcNAc(b1-2)Man(a1-6)]Man(b1-4)GlcNAc(b1-4)GlcNAc
Summary of the method: as §1

[5] = target: GlcNAc(b1-2)Man(a1-3)[GlcNAc(b1-4)][GlcNAc(b1-2)Man(a1-6)]Man(b1-4)GlcNAc(b1-4)[Fuc(a1-6)]GlcNAc
Summary of the method: as §1

[6] = target: GlcNAc(b1-2)[GlcNAc(b1-4)]Man(a1-3)[GlcNAc(b1-2)Man(a1-6)]Man(b1-4)GlcNAc(b1-4)GlcNAc
Summary of the method: as §1

[7] = target: GlcNAc(b1-2)[GlcNAc(b1-4)]Man(a1-3)[GlcNAc(b1-4)][GlcNAc(b1-2)Man(a1-6)]Man(b1-4)GlcNAc(b1-4)GlcNAc
Summary of the method: as §1

[8] = target: GlcNAc(b1-2)[GlcNAc(b1-4)]Man(a1-3)[GlcNAc(b1-4)][GlcNAc(b1-2)[GlcNAc(b1-6)]Man(a1-6)]Man(b1-4)GlcNAc(b1-4)GlcNAc
Summary of the method: as §1

[9] = target: GlcNAc(b1-2)[GlcNAc(b1-4)]Man(a1-3)[GlcNAc(b1-4)][GlcNAc(b1-2)[GlcNAc(b1-6)]Man(a1-6)]Man(b1-4)GlcNAc(b1-4)[Fuc(a1-6)]GlcNAc
Summary of the method: as §1

[10] = target: GlcNAc(b1-2)[GlcNAc(b1-6)]Man(a1-6)[GlcNAc(b1-2)Man(a1-3)]Man(b1-4)GlcNAc(b1-4)GlcNAc
Summary of the method: as §1

[11] = target: GlcNAc(b1-2)[GlcNAc(b1-6)]Man(a1-6)[GlcNAc(b1-2)Man(a1-3)]Man(b1-4)GlcNAc(b1-4)[Fuc(a1-6)]GlcNAc
Summary of the method: as §1

[12] = target: GlcNAc(b1-2)[GlcNAc(b1-6)]Man(a1-6)[GlcNAc(b1-4)][GlcNAc(b1-2)Man(a1-3)]Man(b1-4)GlcNAc(b1-4)GlcNAc
Summary of the method: as §1

GlcNAc(b1-3)Fuc = target: GlcNAc(b1-3)Fuc
Summary of the method: as §1

GlcNAc(b1-3)Gal = target: GlcNAc(b1-3)Gal
Summary of the method: as §1

[13] = target: GlcNAc(b1-3)Gal(b1-3)GalNAc
Summary of the method: as §1

GlcNAc(b1-3)Gal(b1-4)Glc = target: GlcNAc(b1-3)Gal(b1-4)Glc
Summary of the method: as §1

[14] = target: GlcNAc(b1-3)Gal(b1-4)GlcNAc
Summary of the method: as §1

[15] = target: GlcNAc(b1-3)Gal(b1-4)GlcNAc(b1-2)Man(a1-3)[GlcNAc(b1-3)Gal(b1-4)GlcNAc(b1-2)Man(a1-6)]Man(b1-4)GlcNAc(b1-4)GlcNAc
Summary of the method: as §1

[16] = target: GlcNAc(b1-3)Gal(b1-4)GlcNAc(b1-2)Man(a1-3)[GlcNAc(b1-3)Gal(b1-4)GlcNAc(b1-2)Man(a1-6)]Man(b1-4)GlcNAc(b1-4)[Fuc(a1-6)]GlcNAc
Summary of the method: as §1

[17] = target: GlcNAc(b1-3)Gal(b1-4)GlcNAc(b1-2)[GlcNAc(b1-3)Gal(b1-4)GlcNAc(b1-6)]Man(a1-6)[GlcNAc(b1-3)Gal(b1-4)GlcNAc(b1-2)Man(a1-3)]Man(b1-4)GlcNAc(b1-4)GlcNAc
Summary of the method: as §1

[18] = target: GlcNAc(b1-3)Gal(b1-4)GlcNAc(b1-3)Gal(b1-4)GlcNAc
Summary of the method: as §1

[19] = target: GlcNAc(b1-3)Gal(b1-4)GlcNAc(b1-3)Gal(b1-4)GlcNAc(b1-2)Man(a1-3)[GlcNAc(b1-3)Gal(b1-4)GlcNAc(b1-3)Gal(b1-4)GlcNAc(b1-2)Man(a1-6)]Man(b1-4)GlcNAc(b1-4)GlcNAc
Summary of the method: as §1

[20] = target: GlcNAc(b1-3)Gal(b1-4)GlcNAc(b1-3)Gal(b1-4)GlcNAc(b1-2)Man(a1-3)[GlcNAc(b1-3)Gal(b1-4)GlcNAc(b1-3)Gal(b1-4)GlcNAc(b1-2)Man(a1-6)]Man(b1-4)GlcNAc(b1-4)[Fuc(a1-6)]GlcNAc
Summary of the method: as §1

[21] = target: GlcNAc(b1-3)Gal(b1-4)GlcNAc(b1-3)Gal(b1-4)GlcNAc(b1-2)[GlcNAc(b1-3)Gal(b1-4)GlcNAc(b1-3)Gal(b1-4)GlcNAc(b1-6)]Man(a1-6)[GlcNAc(b1-3)Gal(b1-4)GlcNAc(b1-3)Gal(b1-4)GlcNAc(b1-2)Man(a1-3)]Man(b1-4)GlcNAc(b1-4)[Fuc(a1-6)]GlcNAc
Summary of the method: as §1

[22] = target: GlcNAc(b1-3)Gal(b1-4)GlcNAc(b1-3)Gal(b1-4)GlcNAc(b1-3)Gal(b1-4)GlcNAc(b1-2)Man(a1-3)[GlcNAc(b1-3)Gal(b1-4)GlcNAc(b1-3)Gal(b1-4)GlcNAc(b1-3)Gal(b1-4)GlcNAc(b1-2)Man(a1-6)]Man(b1-4)GlcNAc(b1-4)GlcNAc
Summary of the method: as §1

[23] = target: GlcNAc(b1-3)Gal(b1-4)GlcNAc(b1-3)Gal(b1-4)GlcNAc(b1-3)Gal(b1-4)GlcNAc(b1-2)Man(a1-3)[GlcNAc(b1-3)Gal(b1-4)GlcNAc(b1-3)Gal(b1-4)GlcNAc(b1-3)Gal(b1-4)GlcNAc(b1-2)Man(a1-6)]Man(b1-4)GlcNAc(b1-4)[Fuc(a1-6)]GlcNAc
Summary of the method: as §1

[24] = target: GlcNAc(b1-3)Gal(b1-4)GlcNAc(b1-3)Gal(b1-4)GlcNAc(b1-3)Gal(b1-4)GlcNAc(b1-2)[GlcNAc(b1-3)Gal(b1-4)GlcNAc(b1-3)Gal(b1-4)GlcNAc(b1-3)Gal(b1-4)GlcNAc(b1-6)]Man(a1-6)[GlcNAc(b1-3)Gal(b1-4)GlcNAc(b1-3)Gal(b1-4)GlcNAc(b1-3)Gal(b1-4)GlcNAc(b1-2)Man(a1-3)]Man(b1-4)GlcNAc(b1-4)[Fuc(a1-6)]GlcNAc
Summary of the method: as §1

[25] = target: GlcNAc(b1-3)Gal(b1-4)GlcNAc(b1-3)Gal(b1-4)GlcNAc(b1-3)Gal(b1-4)GlcNAc(b1-3)Gal(b1-4)GlcNAc(b1-2)Man(a1-3)[GlcNAc(b1-3)Gal(b1-4)GlcNAc(b1-3)Gal(b1-4)GlcNAc(b1-3)Gal(b1-4)GlcNAc(b1-3)Gal(b1-4)GlcNAc(b1-2)Man(a1-6)]Man(b1-4)GlcNAc(b1-4)GlcNAc
Summary of the method: as §1

[26] = target: GlcNAc(b1-3)Gal(b1-4)GlcNAc(b1-3)Gal(b1-4)GlcNAc(b1-3)Gal(b1-4)GlcNAc(b1-3)Gal(b1-4)GlcNAc(b1-2)Man(a1-3)[GlcNAc(b1-3)Gal(b1-4)GlcNAc(b1-3)Gal(b1-4)GlcNAc(b1-3)Gal(b1-4)GlcNAc(b1-3)Gal(b1-4)GlcNAc(b1-2)Man(a1-6)]Man(b1-4)GlcNAc(b1-4)[Fuc(a1-6)]GlcNAc
Summary of the method: as §1

[27] = target: GlcNAc(b1-3)Gal(b1-4)GlcNAc(b1-3)Gal(b1-4)GlcNAc(b1-3)Gal(b1-4)GlcNAc(b1-3)Gal(b1-4)GlcNAc(b1-2)[GlcNAc(b1-3)Gal(b1-4)GlcNAc(b1-3)Gal(b1-4)GlcNAc(b1-3)Gal(b1-4)GlcNAc(b1-3)Gal(b1-4)GlcNAc(b1-6)]Man(a1-6)[GlcNAc(b1-3)Gal(b1-4)GlcNAc(b1-3)Gal(b1-4)GlcNAc(b1-3)Gal(b1-4)GlcNAc(b1-3)Gal(b1-4)GlcNAc(b1-2)Man(a1-3)]Man(b1-4)GlcNAc(b1-4)[Fuc(a1-6)]GlcNAc
Summary of the method: as §1

[28] = target: GlcNAc(b1-3)Gal(b1-4)GlcNAc(b1-3)Gal(b1-4)GlcNAc(b1-3)GalNAc
Summary of the method: as §1

[29] = target: GlcNAc(b1-3)Gal(b1-4)GlcNAc(b1-3)GalNAc
Summary of the method: as §1

[30] = target: GlcNAc(b1-3)Gal(b1-4)GlcNAc(b1-3)[GlcNAc(b1-3)Gal(b1-4)GlcNAc(b1-3)]GalNAc
Summary of the method: as §1

[31] = target: GlcNAc(b1-3)Gal(b1-4)GlcNAc(b1-6)[Gal(b1-3)]GalNAc
Summary of the method: as §1

[32] = target: GlcNAc(b1-3)Gal(b1-4)GlcNAc(b1-6)[GlcNAc(b1-3)Gal(b1-3)]GalNAc
Summary of the method: as §1

[33] = target: GlcNAc(b1-3)Gal(b1-4)GlcNAc(b1-6)[GlcNAc(b1-3)]Gal(b1-4)GlcNAc
Summary of the method: as §1

GlcNAc(b1-3)GalNAc = target: GlcNAc(b1-3)GalNAc
Summary of the method: as §1

B1: PX15618B-bfa-464-25-464 (Bacteroides fragilis) (protein)
chain: DQEPPLYVNENDIFTSPTRIEATLNGLYAAIKNTGTKSLMGGKSYLVFDNRGDDVINISNNLVTLFNTYNMNVGITDAENADTWTYAYLAINKVNTFLQSLEGAREVAGENYDRYVQEAKFVRALAYYYLNNLYPTPYSVNPDAKSVPLRLTAEAGTENNNMPRSTVKQIYEHILSDLENISALDTEVNTYTGVTHATQAAANMLKMRVYMAMNEWDKAITAGELVTGYSLPEDVTLIYKAPYFSQESIFSLPMADTNIPNTQQSLAEYYYDGKIMLIDTKSGIMSKPDYSLATDKRIIAFKGEKDLLMKFTDAKTKLQWVPIFRYAETLLDLAECYANKAGGEATAKSLLKQVRGRSVDAATDPLNIDNLSGDALKEAIYNEKRLEFIGEGIRGIDIMRRGEHFIKVGENETINVGPSDEKYTWPIPQVELLLNKDINK
glycan array binding signal (z-score) [1]: -0.296
glycan array binding signal (z-score) [2]: -0.301
glycan array binding signal (z-score) [3]: 1.04
glycan array binding signal (z-score) [4]: -0.616
glycan array binding signal (z-score) [5]: -0.004
glycan array binding signal (z-score) [6]: -0.364
glycan array binding signal (z-score) [7]: -0.055
glycan array binding signal (z-score) [8]: -0.295
glycan array binding signal (z-score) [9]: 0.399
glycan array binding signal (z-score) [10]: -0.328
glycan array binding signal (z-score) [11]: 0.701
glycan array binding signal (z-score) [12]: 0.249
glycan array binding signal (z-score) (GlcNAc(b1-3)Fuc): 0.565
glycan array binding signal (z-score) (GlcNAc(b1-3)Gal): 0.088
glycan array binding signal (z-score) [13]: 0.064
glycan array binding signal (z-score) (GlcNAc(b1-3)Gal(b1-4)Glc): -0.08
glycan array binding signal (z-score) [14]: -0.38
glycan array binding signal (z-score) [15]: -0.165
glycan array binding signal (z-score) [16]: -0.453
glycan array binding signal (z-score) [17]: 0.459
glycan array binding signal (z-score) [18]: 0.072
glycan array binding signal (z-score) [19]: 0.522
glycan array binding signal (z-score) [20]: 0.457
glycan array binding signal (z-score) [21]: -0.207
glycan array binding signal (z-score) [22]: 0.102
glycan array binding signal (z-score) [23]: 0.647
glycan array binding signal (z-score) [24]: 0.888
glycan array binding signal (z-score) [25]: 0.012
glycan array binding signal (z-score) [26]: 0.748
glycan array binding signal (z-score) [27]: -0.353
glycan array binding signal (z-score) [28]: -0.357
glycan array binding signal (z-score) [29]: 0.586
glycan array binding signal (z-score) [30]: 0.807
glycan array binding signal (z-score) [31]: -0.226
glycan array binding signal (z-score) [32]: -0.241
glycan array binding signal (z-score) [33]: -0.679
glycan array binding signal (z-score) (GlcNAc(b1-3)GalNAc): -0.195
